Laboratory results taken from PubChem BioAssay AID485344 (National Center for Advancing Translational Sciences (NCATS), 2010).
Several values for one entry are separate records, joined by “and”; a condition that tells them apart may be missing. Identical values can stand only once. Hit rate of the full screen: of about 340,000 compounds, about 6,900 (2%) were called active. No stated cut-off is given here; in the data, active means inhibition above about 30%; inactive means below that, where a call was filed. Only a part is listed here, and it is no random draw. The source gives no active or inactive call for entries shown without one. The source holds several records for some structures; these can differ, active in one and inactive in another.

What follows are molecules tested against D(2) dopamine receptor (Homo sapiens) (UniProt P14416) (assay: HTS Assay for Allosteric Antagonists of the Human D2 Dopamine Receptor: Primary Screen for Antagonists). Settings: HEK293 TREx D2 cells, calcium flux, dopamine EC80; at 10 µM; stronger effect = higher value.
Method in brief: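 Antagonism is scored as inhibition of an EC80 dopamine-evoked calcium signal in a force-coupled, tetracycline-inducible HEK293 T-REx D2 line, with compound present 180 s before agonist.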
Further: 0% is about no effect.

UniProt P14416, sequence (P14416 whole entry, looked up): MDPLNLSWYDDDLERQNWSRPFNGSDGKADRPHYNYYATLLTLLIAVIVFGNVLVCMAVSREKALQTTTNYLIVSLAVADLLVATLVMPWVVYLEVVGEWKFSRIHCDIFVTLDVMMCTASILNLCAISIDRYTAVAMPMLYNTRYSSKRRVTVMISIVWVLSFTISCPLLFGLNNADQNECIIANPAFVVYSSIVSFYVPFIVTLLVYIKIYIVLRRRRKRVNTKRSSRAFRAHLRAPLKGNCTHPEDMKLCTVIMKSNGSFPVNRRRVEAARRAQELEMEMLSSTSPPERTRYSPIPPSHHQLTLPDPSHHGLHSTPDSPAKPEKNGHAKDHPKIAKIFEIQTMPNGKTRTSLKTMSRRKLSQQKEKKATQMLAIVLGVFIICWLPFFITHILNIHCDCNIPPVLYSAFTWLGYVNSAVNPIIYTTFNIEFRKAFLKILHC

| Structure (SMILES) | inhibition |
| --- | --- |
| CCOc1ccc(CCNC(=O)c2ccc3c(c2)N(Cc2ccc(F)cc2)CCS3)cc1 | -8.54% |
| COC(=O)c1sccc1S(=O)(=O)N(CC(=O)Nc1cc(C)ccc1C)c1ccc(C)c(C)c1 | -0.938% |
| CCC(C)NC(=O)c1ccc2c(c1)sc1nc(-c3ccc(OC)cc3)cn12 (centres undefined) | 2.49% |
| Cc1ccc(N2CC(NC(=O)c3ccc(S(=O)(=O)N(C)C)cc3)CC2=O)cc1C (centres undefined) | -21.3% |
| CCOc1ccc(CCNC(=O)c2ccc(-n3c(C)cc4c3CCCC4)cc2)cc1OCC | 9.81% |
| CCCc1nnc(-c2cc(OC)c(OC)c(OC)c2)o1 | active: 30% |
| CCOc1ccc(N2CC(NC(=O)c3ccc4c(c3)OCO4)CC2=O)cc1 (centres undefined) | 0.0204% |
| CC(C)(C)c1nn(-c2ccccc2)c2[nH]c(=O)c(C=O)cc12 | active: 38.8% |
| CCCCNc1nc2c(S(=O)(=O)c3ccc(C)cc3)nnn2c2ccsc12 | -10.9% |
| CCOCCc1nnc(NC(=O)C(=O)c2cc(C)n(-c3ccc(C)c(C)c3)c2C)s1 | 11.7% |
| O=C(Nc1ccccc1C(=O)OCc1cc(=O)n2nc(C3CC3)sc2n1)c1ccc(Cl)cc1 | 9.29% |
| Cc1ccc(C)c(N2CCN(c3nc4ccc(C)cc4nc3-n3nc(C)cc3C)CC2)c1 | 9.24% |
| Cc1cc(C)n(CCC(=O)Nc2ccc(Cl)cc2)n1 | 14.1% |
| Cc1c(C)n(Cc2ccccc2)c2ccc(C(=O)NCC(C)c3ccccc3)cc12 (centres undefined) | 12.4% |
| Cc1ccc(N2CCN(S(=O)(=O)c3nnc(NC(=O)c4ccccc4)s3)CC2)cc1 | -18.4% |
| CCCc1ccc(OCc2ccc(C(=O)N3CCSCC3)o2)cc1 | active: 38.6% |
| COc1ccc(N2CCN(C(=O)c3cc4c(=O)oc5ccc(C)cc5c4s3)CC2)cc1 | -15.4% |
| CCc1ccc2ncc3c(-c4ccc(F)cc4)nn(CC(=O)NC4CCCCC4)c3c2c1 | 10.5% |
| CCOC(=O)Cn1c(=O)n(-c2cccc(Cl)c2)c2nc(-c3ccccc3Cl)nc(C(N)=O)c21 | -7.93% |
| CN(C)c1ccc(CNC(=O)Cc2ccc(NC(=O)N3CCCCc4ccccc43)cc2)cc1 | -7.25% |
| Cc1ccccc1OC(=O)c1nc(SCc2ccccc2F)ncc1Cl | -22.9% |
| CC(=O)N1c2ccc(S(=O)(=O)N3CCC(C(=O)Nc4cccc(Cl)c4C)CC3)cc2CC1C (centres undefined) | 5.21% |
| N#CC(C#N)=C1C=C2C=C(N3CCCCCC3)CCC2CC1 (centres undefined) | active: 82.9% |
| O=C(NCCCN1CCN(c2cccc(Cl)c2)CC1)c1nc(-c2ccncc2)no1 | active: 82.5% |

| Structure (SMILES) | inhibition |
| --- | --- |
| Cc1cccc(Cn2cc(S(=O)(=O)c3ccccc3)c(=O)c3cc(F)c(N4CCOCC4)cc32)c1 | 5.79% |
| Cc1cccc(C)c1NC(=O)C1CCCN1S(=O)(=O)c1ccccc1 (centres undefined) | -7.24% |
| COc1ccc(OC)c(CNS(=O)(=O)c2ccc3c(c2)oc(=O)n3C)c1 | 5.57% |
| COc1ccc(-c2nc3ccccc3o2)cc1NC(=O)COc1ccc(C)c(C)c1 | -1.61% |
| CCOc1ccc(C(=O)Nc2cccc(C(=O)OCc3cc(=O)n4cc(C)sc4n3)c2)cc1 | -20.1% |
| Cc1cccc2nc(Cn3c(=O)n(-c4ccc(Cl)cc4)c(=O)c4c5c(sc43)CCC5)cc(=O)n12 | -12.7% |
| COc1ccc(S(=O)(=O)N(CC(=O)N2CCc3ccccc3C2)c2ccc(C)cc2)cc1 | -12.1% |
| COc1ccc(N2C(=O)CS(=O)(=O)C23C(=O)N(Cc2ccccc2F)c2ccccc23)cc1Cl (centres undefined) | -5.57% |
| Cc1nn(C(C)C(=O)N2CCN(c3ccc(F)cc3)CC2)c(=O)c2c1sc1ccccc12 (centres undefined) | -0.532% |
| CCn1cc(C(=O)NCCc2ccccc2)c(=O)c2cc(S(=O)(=O)N3CCCCCC3)ccc21 | 12.6% |
| Cc1nnc(NC(=O)CCC(=O)N2CCN(CCOc3cccc4ccccc34)CC2)s1 | active: 52.4% |
| COc1ccc(Br)cc1CNC(=O)c1cc(=O)[nH]c2ccc(S(=O)(=O)N3CCCCC3C)cc12 (centres undefined) | -14.9% |
| CCCNC(=O)C1CCC(Cn2c(=O)c3sccc3n(CC(=O)NCc3ccccc3)c2=O)CC1 (centres undefined) | 2.55% |
| CCOC(=O)c1ccc(NC(=O)CCCc2nc(-c3cc(OC)c(OC)c(OC)c3)no2)cc1 | 10.5% |
| CCOc1ccc(S(=O)(=O)N(CC(=O)Nc2ccc(OC)cc2OC)c2ccccc2)cc1 | -16.3% |
| Cc1nn(CCCC(=O)NCc2ccccc2Br)c(=O)c2c1sc1ccccc12 | 16.4% |
| CCn1c(SCC(N)=O)nc2ccccc2c1=O | active: 37.2% |
| COc1ccc(C)cc1NC(=O)C(=O)NCCc1sc(-c2cccc(C)c2)nc1C | -8.71% |
| Cc1cc(C)cc(NC(=O)Cc2csc(COc3cccc(C)c3)n2)c1 | -6.86% |
| Cc1ccccc1C(=O)Nc1ccc(S(=O)(=O)N2CCC(c3nc4ccccc4s3)CC2)cc1 | 16.7% |
| Cc1cccc(NC(=O)c2cnc3sc(N4CCCC4)nn3c2=O)c1C | -3.23% |
| CSCCC(NS(=O)(=O)c1ccc2c(c1)oc(=O)n2C)C(=O)Nc1ccc(F)c(Cl)c1 (centres undefined) | 15.4% |
| COc1ccc(NC(=O)c2c(NCc3cccc(F)c3)sc3c2CCC3)c(OC)c1 | -3.92% |
| COc1ccc(OC)c(CNC(=O)c2c(C)oc3ncn(CC(C)C)c(=O)c23)c1 | -4.19% |

| Structure (SMILES) | inhibition |
| --- | --- |
| CCCCOc1ccc(C2=NC(c3cccs3)=Nc3ccc(OC)cc3N2)cc1 | 3.95% |
| Cc1nn(C)c(C)c1S(=O)(=O)N(CC(=O)NCCc1ccc(Cl)cc1)c1ccc(C(C)C)cc1 | -1.99% |
| COc1ccc(NC(=O)NC2CC3CCCC(C2)N3Cc2ccccc2)cc1 (centres undefined) | active: 46% |
| COc1cccc2sc(N(Cc3cccnc3)C(=O)c3ccco3)nc12 | -8.18% |
| O=C(NCC(c1cccnc1)N1CCN(c2ccccc2F)CC1)c1ccc(F)cc1 (centres undefined) | 15.7% |
| CCC1CCc2nc3sc(C(=O)Nc4cccc(F)c4)c(N)c3cc2C1 (centres undefined) | -7.79% |
| CCOC(=O)c1c(C)[nH]c(C)c1S(=O)(=O)NCC(=O)Nc1cccc(SC)c1 | 3.33% |
| COc1cccc(NC(=O)CSc2nc(C)c(Cc3ccccc3)c(=O)[nH]2)c1 | -6.14% |
| Cc1cccc(-c2nc3c4c(-c5ccccc5)c(-c5ccccc5)oc4ncn3n2)c1 | -17.9% |
| Cc1ccc(C2N=C(N)Nc3nc4ccccc4n32)cc1 (centres undefined) | -21.1% |
| CCN(CC)c1ccc(C(=O)NCc2nc3cccnc3n2Cc2ccc(C)cc2)cc1 | 15.9% |
| Cc1cccc(NC(=O)Cn2cc(S(=O)(=O)N3CCCC3)c(S(=O)(=O)N3CCCC3)c2)c1C | -0.341% |
| CCOC(=O)c1cccc(NC(=O)CCn2c(=O)oc3ccccc32)c1 | 9.62% and active: 32.1% |
| Cc1c(C)c2c(cc(C)c3c(-c4ccc(Br)cc4)coc32)oc1=O | -10% |
| CCC(Oc1ccccc1)C(=O)Nc1cccc(OCc2cc(=O)n3cccc(C)c3n2)c1 (centres undefined) | 10.6% |
| CC(=O)c1ccc(NC(=O)Cn2c(=O)cc(C)c3c(C)nn(-c4cccc(F)c4)c32)cc1 | 6.14% |
| COc1ccc(S(=O)(=O)c2c(Nc3cccc(Cl)c3)sc(C(=O)c3ccccc3)c2N)cc1 | -2.85% |
| COc1ccc(/C=C/c2nc(C#N)c(N3CCCCC3)o2)cc1OC | -1.68% |
| CCc1ccc(NC(=O)Cn2ncn3c(cc4ccccc43)c2=O)cc1 | 5% |
| Cc1ccc2c(=O)cc(C(=O)Nc3c(C)cccc3C)oc2c1 | 4.23% |
| O=C(CCCCCn1c(=O)[nH]c2ccccc2c1=O)NCCc1c[nH]c2ccccc12 | active: 39.1% |
| Cc1cc2c(cc1S(=O)(=O)NCc1ccc(F)cc1)OCCN2C | 12.9% |
| CCCCN(Cc1cc2cc(C)ccc2[nH]c1=O)C(=O)c1cccc(Cl)c1 | -3.15% |
| Cc1nc2c3ccccc3nc(NNC(=O)CCC(=O)N3CCN(c4ccc(F)cc4)CC3)n2n1 | 4.83% |

| Structure (SMILES) | inhibition |
| --- | --- |
| CCOc1ccc(CCNC(=O)CSCC(=O)Nc2ccc(OC)cc2)cc1OCC | active: 31.4% |
| Cc1cccc(NC(=O)CSc2cn(CC(=O)N3CCOCC3)c3ccccc23)c1C | 4.6% |
| Cc1ccc2nc(COc3ccccc3NC(=O)Nc3ccc(F)c(Cl)c3)cc(=O)n2c1 | -2.15% |
| CCC(=O)N1CCc2cc(Br)cc(S(=O)(=O)N3CCCC(C(=O)NCc4ccc(C)cc4)C3)c21 (centres undefined) | 15.3% |
| Cc1ccc(-n2c3nc(=O)n(C)c(=O)c-3cc3ccccc32)c(C)c1 | -19.8% |
| COc1ccc(NC(=O)C2CCN(C(=O)Nc3ccccc3)CC2)cc1S(=O)(=O)N(C)C | active: 77.2% |
| CCc1cccc(CC)c1NC(=O)CN(C)S(=O)(=O)c1ccc2c(c1)n(C)c(=O)c(=O)n2C | -5.49% |
| CSc1nn(Cc2ccc(F)cc2)c(N(C(C)=O)C(C)=O)c1S(=O)(=O)c1ccccc1 | -5.53% |
| Cc1ccc(C(=O)CSc2nc(C)cc(C)c2C(=O)Nc2cccc(C)c2)cc1 | 9.69% |
| COc1cccc(CNC(=O)C2CCCN(c3nnc(-n4c(C)ccc4C)s3)C2)c1OC (centres undefined) | -1.48% |
| Cc1ccc(C(=O)c2oc3ccccc3c2NC(=O)COc2ccc(Cl)c(C)c2)cc1 | 3.91% |
| COc1cccc(NC(=O)Cn2c(=O)oc3cc(S(=O)(=O)N4CCCCC4)ccc32)c1 | 22% |
| Cc1ccc(-n2nnc3c(SCC(=O)NCC4CCCO4)ncnc32)cc1 (centres undefined) | active: 46.4% |
| Cc1c(C)n(Cc2ccc(Cl)cc2)c2ccc(C(=O)N3CCN(c4ccccc4F)CC3)cc12 | 10.9% |
| COc1cc(C2CC(=O)Nc3cc4c(cc32)OCO4)cc(OC)c1O (centres undefined) | -3.56% |
| CC(C)COc1ccc(C(=O)N2CCCCC2CCN2CCOCC2)cc1 (centres undefined) | -5.96% |
| COCCc1ccc(OCC(O)CNC(C)C)cc1 (centres undefined) | active: 33.9% |
| COc1ccc(OC)c(CCNC(=O)c2nc(-c3ccc(Cl)cc3)n3c2CCCCC3)c1 | 1.8% |
| CCOc1ccccc1Nc1sc(C(=O)c2ccccc2)c(N)c1C(=O)Nc1ccc(F)cc1 | 0.0544% |
| Cc1ccc(Cn2ccnc2SCC(=O)NCc2ccccc2)cc1 | 20% |
| Cc1nc(-c2ccc(Cl)cc2)sc1CCNC(=O)C(=O)Nc1ccc2c(c1)OCO2 | 17.7% |
| CSc1ccc(CCNC(=O)Cn2nc(C)n3c(cc4sccc43)c2=O)cc1 | -9.26% |
